Experimental data: PubChem BioAssay AID504339 (National Center for Advancing Translational Sciences (NCATS), 2011)
Out of some 390,000 compounds screened, about 17,000 (4.4%) were called active. This list was built around the results that the source calls inconclusive (neither active nor inactive); the mix of calls is not that of the screen. The call rests on the fitted dose curve; in most records, active means well fitted inhibition curve with a large enough effect; inconclusive means small, poorly fitted or top-dose-only effect; inactive means no such curve, though single readings can be large or run the other way. A potency beside an inconclusive call is a rough fit, not a confirmed value.

target: Lysine-specific demethylase 4A (Homo sapiens) (UniProt O75164); assay: qHTS Assay for Inhibitors of JMJD2A-Tudor Domain; conditions: AlphaScreen JMJD2A-Tudor / H3K4me3 peptide binding; activity change, negative = inhibition: at 114 µM (top of the series); further: nearly all actives have a fitted effect of over 50% in size
On the % scale 0 is the no-effect control and ±100 the full control effect; potency means the concentration at half of the fitted maximal effect; tags describe the fitted curve by direction and shape.

Chain of UniProt O75164 (O75164 whole entry, looked up, the tested form may be a part): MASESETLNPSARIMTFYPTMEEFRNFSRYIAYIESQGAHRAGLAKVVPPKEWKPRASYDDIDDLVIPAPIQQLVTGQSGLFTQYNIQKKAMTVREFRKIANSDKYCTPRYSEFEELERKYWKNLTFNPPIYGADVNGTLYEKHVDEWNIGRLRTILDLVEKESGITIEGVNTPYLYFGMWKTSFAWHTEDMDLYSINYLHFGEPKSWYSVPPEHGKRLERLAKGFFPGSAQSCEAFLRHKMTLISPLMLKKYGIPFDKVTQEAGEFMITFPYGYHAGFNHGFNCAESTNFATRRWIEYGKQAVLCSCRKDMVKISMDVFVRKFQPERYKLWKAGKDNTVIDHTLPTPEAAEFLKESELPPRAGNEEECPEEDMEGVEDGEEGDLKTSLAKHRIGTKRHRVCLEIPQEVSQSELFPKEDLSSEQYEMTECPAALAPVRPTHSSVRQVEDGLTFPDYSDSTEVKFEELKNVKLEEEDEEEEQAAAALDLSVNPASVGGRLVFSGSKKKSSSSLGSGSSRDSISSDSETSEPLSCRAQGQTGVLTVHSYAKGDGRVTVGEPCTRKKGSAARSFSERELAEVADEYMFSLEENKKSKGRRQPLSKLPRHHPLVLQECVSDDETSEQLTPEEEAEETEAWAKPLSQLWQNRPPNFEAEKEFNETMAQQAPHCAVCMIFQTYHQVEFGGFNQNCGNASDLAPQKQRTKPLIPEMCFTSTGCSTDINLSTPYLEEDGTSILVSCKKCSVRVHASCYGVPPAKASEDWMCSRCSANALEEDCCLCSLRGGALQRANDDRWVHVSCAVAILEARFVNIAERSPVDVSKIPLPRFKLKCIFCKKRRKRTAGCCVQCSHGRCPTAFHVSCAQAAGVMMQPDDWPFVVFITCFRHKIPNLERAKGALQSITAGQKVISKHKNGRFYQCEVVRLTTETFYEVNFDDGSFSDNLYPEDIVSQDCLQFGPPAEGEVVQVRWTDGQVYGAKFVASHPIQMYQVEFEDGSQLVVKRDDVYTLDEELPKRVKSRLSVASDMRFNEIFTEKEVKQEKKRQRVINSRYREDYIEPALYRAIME

SMILES	Potency	activity change, negative = inhibition
O=C(NC(NNc1ccc([N+](=O)[O-])cc1)(C(F)(F)F)C(F)(F)F)c1ccc(Cl)cc1	inconclusive: 35.5 µM [inhibitor, partial curve]	–
COc1ccc(/C=N\N=C2/SC(CC(=O)O)C(=O)N2c2ccc(O)cc2)cc1OC (stereo not given)	–	inactive: 6.09%
Cc1ccc(S(=O)(=O)N2CCN(C(=O)/C=C/c3ccco3)CC2)cc1	active: 79.4 µM	–
Cc1ccc(/C=N/NC(=O)c2ccncc2)o1	inconclusive: 25.1 µM [inhibitor, partial curve]	–
Cc1ccc(Nc2nc(-c3ccc(S(=O)(=O)N4CCCC4)cc3)cs2)cc1C	inconclusive: 63.1 µM [inhibitor, partial curve]	–
CCOC(=O)C1CCN(S(=O)(=O)c2ccc3c(c2)CC(=O)N3C)CC1	inconclusive: 79.4 µM [inhibitor, partial curve]	–
CCC(C)(C)n1nnnc1C(c1ccc(OC)c(OC)c1)N1CCN(c2ccc(OC)cc2)CC1 (stereo not given)	active: 28.2 µM	–
Cc1cc(C)n(/N=C/c2ccco2)c(=O)c1C#N	–	inactive: 2.9%
CCOC(=O)c1c(-c2cccc([N+](=O)[O-])c2)csc1N	inconclusive: 28.2 µM [inhibitor, partial curve]	–
Cc1ccccc1OCCNc1cc(N2CC(C)NC(C)C2)ccc1[N+](=O)[O-] (stereo not given)	inconclusive: 44.7 µM [inhibitor, partial curve]	–
COc1cc(/C=C2\SC(=O)N(CCN)C2=O)ccc1OS(=O)(=O)c1cc(C)ccc1C	active: 28.2 µM	–
Cc1ccc(S(=O)(=O)c2nc(-c3ccccc3)oc2NCCCN2CCOCC2)cc1	inconclusive: 28.2 µM [inhibitor, single point]	–
O=C(/C=C/c1cn(CC(O)CN2CCc3ccccc32)c2ccccc12)c1ccc(Br)cc1 (stereo not given)	inconclusive: 44.7 µM [inhibitor, partial curve]	–
Cc1cc(C)c2oc(C(=O)Nc3ccc(S(=O)(=O)Nc4nccs4)cc3)cc(=O)c2c1	inconclusive: 25.1 µM [inhibitor, partial curve, poor fit]	–
C=CCN1C(=O)CN=C1Nc1cc(C)cc(C)c1	inconclusive: 79.4 µM [inhibitor, single point]	–
CCOc1ccc(C(=O)NC(=S)NCc2cccnc2)cc1	–	inactive: -4.39%
CC(C)(O)c1ccccc1CC[C@@H](SCC1(CC(=O)O)CC1)c1cccc(/C=C/c2ccc3ccc(Cl)cc3n2)c1	active: 79.4 µM	–
O=C(O)C(=O)/C(=C\c1ccc(Cl)cc1)c1ccc2ccccc2n1	active: 22.4 µM	–
Cn1cccc1/C=C1\SC(=Nc2cccc(O)c2)NC1=O	inconclusive: 50.1 µM [inhibitor, partial curve]	–
CN(CC(=O)Nc1ncn[nH]1)S(=O)(=O)c1ccc(Br)cc1	inconclusive: 39.8 µM [inhibitor, single point]	–
CCN(CC)C(=O)Cn1cc(S(=O)(=O)CC(=O)Nc2ccc(C(N)=O)cc2)c2ccccc21	–	inactive: -19.9%
Cc1ccc(NNC(=O)C2CCC2)cc1C	inconclusive: 89.1 µM [inhibitor, single point]	–
C#CCOCCOCCOCCNc1nc(N2CCN(C(=O)CCCCCCCCCCNC(=O)Cn3cc(CCCCCN)nn3)CC2)nc(N2CCN(C(=O)CCCCCCCCCCNC(=O)Cn3cc(CCCCCN)nn3)CC2)n1	active: 56.2 µM	–
c1ccc2sc(NC3=NCN(CCN4CCOCC4)CN3)nc2c1	–	inactive: -10.4%

SMILES	Potency	activity change, negative = inhibition
O=C1CCCN1c1ccc(S(=O)(=O)NCc2ccco2)cc1	inconclusive: 39.8 µM [inhibitor, single point]	–
COc1ccc(/C=C2/CCC(CN3CCOCC3)C2=O)cc1 (stereo not given)	active: 79.4 µM	–
Cc1cccc(-c2nn(-c3ccccc3)cc2CNCCO)c1	active: 10 µM	–
Cc1cccc(C(=O)NC(=O)Nc2ccc(-n3nc(C(F)(F)F)cc3C(F)(F)F)cc2)c1	–	inactive: -28.7%
S=C(Nc1ccccc1)c1ccccn1	active: 56.2 µM	–
CC(c1ccccc1)N(CCC(c1ccccc1)C1CCOC(C)(C)C1)C(=O)c1ccco1 (stereo not given)	inconclusive: 79.4 µM [inhibitor, single point]	–
CN1Cc2c(N3CCOCC3)nc(SCCC#N)c(C#N)c2CC1(C)C	–	inactive: -17.6%
CCN(CC)C(=O)c1sc(NC(=O)c2cccs2)c(C#N)c1C	–	inactive: 0%
COc1ccc(CCNC(=O)CC2Oc3ccc(Cl)cc3NC2=O)cc1OC (stereo not given)	–	inactive: -19.7%
COc1ccc(N2C3=C(CC4=C2CC(C)(C)CC4=O)C(=O)CC(C)(C)C3)cc1	inconclusive: 89.1 µM [inhibitor, single point]	–
COc1ccc(Br)cc1CN1CCN(C(=O)c2ccc(OC)c(OC)c2)CC1	active: 14.1 µM	–
C=CCn1c(SCC(=O)Nc2c(C)n(C)n(-c3ccccc3)c2=O)nnc1-c1cccnc1	–	inactive: -6.85%
COC(=O)c1ccc(C2/C(=C(/O)c3ccc(OC)cc3)C(=O)C(=O)N2Cc2ccco2)cc1 (stereo not given)	inconclusive: 89.1 µM [inhibitor, single point]	–
Cc1ccccc1-c1nn(-c2ccc(F)cc2F)cc1CNCCN(C)C	inconclusive: 39.8 µM [inhibitor, full curve, poor fit]	–
CC[n+]1c(/C=C2/C=C(C)CC(C)(C)C2)sc2ccc(OC)cc21	active: 50.1 µM	–
COc1ccc(C(=O)Nc2cccc(-c3nc4cccnc4s3)c2C)c(OC)c1	inconclusive: 44.7 µM [inhibitor, full curve, poor fit]	–
Cc1cc2oc3ccc(NCCCn4ccnc4)cc3c(=O)c2cc1C	inconclusive: 28.2 µM [inhibitor, partial curve]	–
NCCSc1c(-c2ccc(Cl)cc2)[nH]c2ccccc12	–	inactive: -30.9%
Cc1cc(C)c(NC(=O)C2CCCN2CCOC(=O)c2cccc([N+](=O)[O-])c2)c(C)c1 (stereo not given)	inconclusive: 25.1 µM [inhibitor, full curve, poor fit]	–
O=C(CSc1cccc[n+]1[O-])Nc1cc2c(cc1Cl)C(=O)c1ccccc1C2=O	inconclusive: 25.1 µM [inhibitor, single point]	–
C=CCN(C(=O)CC(NC(C)=O)c1ccccc1)c1nc(-c2ccc(S(C)(=O)=O)cc2)cs1 (stereo not given)	–	inactive: -3.79%
COc1cccc(/C=C2/SC(=S)N(CCC(=O)N3CCOCC3)C2=O)c1	active: 56.2 µM	–
C=C(C)C1CC=C(C)/C(=N\NC(=O)CNc2ccccc2OC)C1 (stereo not given)	inconclusive: 50.1 µM [inhibitor, partial curve]	–
Cc1ccc(C2c3[nH]c4ccccc4c3CCN2C(=O)c2ccccc2Br)cc1 (stereo not given)	inconclusive: 31.6 µM [inhibitor, full curve, poor fit]	–

SMILES	Potency	activity change, negative = inhibition
COc1ccccc1C1CC(=O)Oc2cc(O)ccc21 (stereo not given)	inconclusive: 89.1 µM [inhibitor, single point]	–
COc1ccc2c(c1)c(=Cc1ccc(N(C)C)cc1)c1cc(-c3ccccc3)[n+](C)n12	active: 22.4 µM	–
O=C(O)c1ccc(Nc2nc3ccc(Cl)cc3[nH]2)cc1	inconclusive: 100 µM [inhibitor, partial curve]	–
CN(C)CCCNCC(=O)c1c(-c2ccccc2)n(C)c2ccccc12	active: 4.47 µM	–
COc1ccc2[nH]c3c(N4CCc5ccccc5C4)ncnc3c2c1	inconclusive: 50.1 µM [inhibitor, partial curve]	–
COCCCNCCOCCOc1ccc(C)cc1Br	active: 50.1 µM	–
COc1cc(CNc2ccc(N3CCN(C(C)=O)CC3)cc2)ccc1OCc1ccc(F)cc1	inconclusive: 12.6 µM [inhibitor, full curve, poor fit]	–
Cc1ncc(CO)c2c1Oc1nc(-c3ccc(F)cc3)nc(SCC(=O)N3CCCCC3)c1C2	–	inactive: -9.16%
O=C(O)c1ccc(NC2=C(Cl)C(=O)c3ccccc3C2=O)cc1	inconclusive: 56.2 µM [inhibitor, partial curve]	–
CC1(c2nnc(-c3ccc(Cl)cc3)o2)CC(c2ccc(Cl)cc2)=NO1 (stereo not given)	–	inactive: -4.35%
CCC(C)N1CCN(S(=O)(=O)c2ccc(NC(C)=O)cc2)CC1 (stereo not given)	active: 22.4 µM	–
COc1cccc2sc3ccc(NCCC4CCCN4C)cc3c(=O)c12 (stereo not given)	inconclusive: 89.1 µM [inhibitor, partial curve]	–
O=c1[nH]c(SCc2ccc([N+](=O)[O-])cc2)nc2[nH]ncc12	–	inactive: -8.33%
Cc1cc(=O)nc2c3ccccc3n(CC(=O)NC(C)c3ccc4c(c3)OCCO4)n12 (stereo not given)	–	inactive: -1.5%
O=C(COC(=O)CSc1ccc([N+](=O)[O-])cc1)NC1CCCCCCC1	inconclusive: 70.8 µM [inhibitor, partial curve, poor fit]	–
Cc1cccc(C)c1Nc1nnc(SCC(=O)c2ccc(Br)s2)s1	inconclusive: 25.1 µM [inhibitor, single point]	–
O=C1c2cc([N+](=O)[O-])ccc2-c2cc(Br)c(N=C(NO)C(F)(F)F)cc21	inconclusive: 35.5 µM [inhibitor, partial curve]	–
Nc1nnc(SCC(=O)Nc2cccc(S(=O)(=O)N3CCCCC3)c2)s1	–	inactive: -18.2%
COc1cc(/C=C2\C(=O)NN(c3ccc(C)cc3)C2=O)cc([N+](=O)[O-])c1O	inconclusive: 44.7 µM [inhibitor, partial curve]	–
CC1CCN(C(=O)c2[nH]cnc2C(=O)Nc2ccon2)CC1	inconclusive: 56.2 µM [inhibitor, partial curve]	–
Cc1ccc(OCCN2CCN(c3ncnc4sc(C)c(C)c34)CC2)cc1	inconclusive: 35.5 µM [inhibitor, full curve]	–
CNC(=S)N/N=C/c1ccc(C(C)C)cc1	inconclusive: 3.98 µM [inhibitor, single point]	–
